Test results reported in the supplement of paper PMC4967469.

Tests used:
Assay in all cases: Viability of human cancer cell lines after 72 h of drug (GDSC screen)
Gemcitabine = compound: Nc1ccn([C@@H]2O[C@H](CO)[C@@H](O)C2(F)F)c(=O)n1 [Gemcitabine]; details: top dose 1.024 µM
Method: (§1)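 Human cancer cell lines in 384-well plates, medium with 10% serum, drug for 72 h over a 256-fold dose range (nine 2-fold or five 4-fold steps up to the top dose). Adherent lines were fixed and stained with the nucleic acid dye Syto60, suspension lines read with resazurin; signal relative to control wells, capped at 0 and 100%. One two-parameter sigmoid per drug and line, fitted in a mixed model over all curves with the slope shared within a line.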

T0901317 = compound: O=S(=O)(c1ccccc1)N(CC(F)(F)F)c1ccc(C(O)(C(F)(F)F)C(F)(F)F)cc1 [T0901317]; details: top dose 10.24 µM; top dose inferred
Method: as §1

TW-37 = compound: CC(C)c1ccccc1Cc1cc(C(=O)Nc2ccc(S(=O)(=O)c3ccccc3C(C)(C)C)cc2)c(O)c(O)c1O [TW-37]; details: top dose 5 µM
Method: as §1

Nilotinib = compound: Cc1cn(-c2cc(NC(=O)c3ccc(C)c(Nc4nccc(-c5cccnc5)n4)c3)cc(C(F)(F)F)c2)cn1 [Nilotinib]; details: top dose 2 µM
Method: as §1

MP470 = compound: S=C(NCc1ccc2c(c1)OCO2)N1CCN(c2ncnc3c2oc2ccccc23)CC1 [MP470]; details: top dose 20 µM; top dose inferred
Method: as §1

Bicalutamide = compound: CC(O)(CS(=O)(=O)c1ccc(F)cc1)C(=O)Nc1ccc(C#N)c(C(F)(F)F)c1 [Bicalutamide]; details: top dose inferred
Method: as §1

AUY922 = compound: CCNC(=O)c1noc(-c2cc(C(C)C)c(O)cc2O)c1-c1ccc(CN2CCOCC2)cc1 [AUY922]; details: top dose 0.256 µM; top dose inferred
Method: as §1

LFM-A13 = compound: C/C(O)=C(\C#N)C(=O)Nc1cc(Br)ccc1Br [LFM-A13]; details: top dose 16 µM; top dose inferred
Method: as §1

KIN001-270 = compound: Cc1ccc(Nc2cc(-c3cccc(N4C(=O)c5ccccc5C4=O)c3)ncn2)cc1NS(C)(=O)=O [KIN001-270]; details: top dose 20 µM; top dose inferred
Method: as §1

[1] = top dose 1.024 µM, screen: GDSC drug entry 150
[2] = top dose 10 µM, screen: GDSC drug entry 1502

Cell Line	AUC (Gemcitabine)	IC50 (Gemcitabine) [nM]	AUC (T0901317)	IC50 (T0901317) [nM]	AUC (TW-37)	IC50 (TW-37) [nM]	AUC (Nilotinib)	IC50 (Nilotinib) [nM]	AUC (MP470)	IC50 (MP470) [nM]	AUC (Bicalutamide; [1])	IC50 (Bicalutamide; [1]) [nM]	AUC (Bicalutamide; [2])	IC50 (Bicalutamide; [2]) [nM]	AUC (AUY922)	IC50 (AUY922) [nM]	AUC (LFM-A13)	IC50 (LFM-A13) [nM]	AUC (KIN001-270)	IC50 (KIN001-270) [nM]
BICR22 (head and neck, adherent)	0.777	474	0.983	> 10200	0.491	294	0.874	> 2000	0.347	441	0.983	> 1020	0.962	> 10000	0.685	57.3	0.958	> 16000	0.982	> 20000
RVH-421 (melanoma, adherent)	0.846	> 1020	0.979	> 10200	0.493	298	0.929	> 2000	0.805	14900	0.953	> 1020	0.961	> 10000	0.566	25.9	0.946	> 16000	0.964	> 20000
RH-41 (rhabdomyosarcoma, adherent)	0.898	910	0.985	> 10200	0.37	147	0.989	> 2000	0.887	16000	0.992	> 1020	0.986	> 10000	0.765	79.2	0.985	> 16000	0.989	> 20000
KMRC-1 (kidney, adherent)	0.928	> 1020	0.974	> 10200	0.506	324	0.987	> 2000	0.975	> 20000	0.987	> 1020	–	–	0.724	72.5	0.97	> 16000	0.904	> 20000
MHH-ES-1 (Ewing sarcoma, adherent)	0.132	4.5	0.979	> 10200	0.568	478	0.947	> 2000	0.912	> 20000	0.986	> 1020	0.98	> 10000	0.404	8.75	0.94	> 16000	0.96	> 20000
SW1417 (large intestine, adherent)	0.951	> 1020	0.979	> 10200	0.7	1270	0.986	> 2000	0.956	> 20000	0.986	> 1020	0.977	> 10000	0.925	> 256	0.974	> 16000	0.986	> 20000
CAL-85-1 (breast, adherent)	0.639	174	0.966	> 10200	0.73	1730	0.934	> 2000	0.929	> 20000	0.979	> 1020	0.964	> 10000	0.414	8.71	0.941	> 16000	0.951	> 20000
HuO9 (osteosarcoma, adherent)	0.979	> 1020	0.956	> 10200	0.625	722	0.924	> 2000	0.611	2620	0.981	> 1020	0.978	> 10000	0.975	> 256	0.984	> 16000	0.982	> 20000
AGS (stomach, adherent)	0.089	< 4	0.979	> 10200	0.262	71.5	0.983	> 2000	0.947	> 20000	0.99	> 1020	–	–	0.451	11.9	0.98	> 16000	0.972	> 20000
CHL-1 (melanoma, adherent)	0.117	4.12	0.958	> 10200	0.274	74.4	0.988	> 2000	0.935	> 20000	0.987	> 1020	0.968	> 10000	0.555	22.5	0.987	> 16000	0.978	> 20000
SAT (head and neck, adherent)	0.932	> 1020	0.975	> 10200	0.585	608	0.816	> 2000	0.975	> 20000	0.974	> 1020	0.936	> 10000	0.736	112	0.959	> 16000	0.956	> 20000
HSC-4 (head and neck, adherent)	0.136	< 4	0.956	> 10200	0.451	220	0.959	> 2000	0.758	9130	0.979	> 1020	0.943	> 10000	0.759	118	0.975	> 16000	0.949	> 20000
23132-87 (stomach, adherent)	0.473	53.8	0.977	> 10200	0.593	568	0.986	> 2000	0.922	> 20000	0.982	> 1020	0.985	> 10000	0.769	99.7	0.96	> 16000	0.97	> 20000
LN-18 (glioma, adherent)	0.062	< 4	0.992	> 10200	0.422	200	0.994	> 2000	0.987	> 20000	0.993	> 1020	0.984	> 10000	0.579	25.2	0.987	> 16000	0.994	> 20000
FTC-133 (thyroid, adherent)	0.586	113	0.957	> 10200	0.613	660	0.986	> 2000	0.237	198	0.986	> 1020	0.971	> 10000	0.94	> 256	0.982	> 16000	0.948	> 20000
HCC-56 (large intestine, adherent)	0.889	> 1020	0.916	> 10200	0.802	2520	0.987	> 2000	0.341	447	0.987	> 1020	0.986	> 10000	0.834	172	0.987	> 16000	0.987	> 20000
D-392MG (glioma, adherent)	0.842	> 1020	0.98	> 10200	0.685	1260	0.952	> 2000	0.921	> 20000	0.98	> 1020	0.964	> 10000	0.695	69.8	0.923	> 16000	0.95	> 20000
K2 (melanoma, adherent)	0.673	225	0.978	> 10200	0.666	1040	0.96	> 2000	0.868	> 20000	0.98	> 1020	0.975	> 10000	0.77	127	0.976	> 16000	0.982	> 20000
WM35 (melanoma, adherent)	0.158	5.61	0.986	> 10200	0.447	224	0.971	> 2000	0.842	14200	0.986	> 1020	0.977	> 10000	0.513	17.4	0.969	> 16000	0.974	> 20000
BT-20 (breast, adherent)	0.65	186	0.98	> 10200	0.618	717	0.98	> 2000	0.91	> 20000	0.983	> 1020	0.982	> 10000	0.863	> 256	0.974	> 16000	0.975	> 20000
CP50-MEL-B (melanoma, adherent)	0.958	> 1020	0.975	> 10200	0.293	81.9	0.975	> 2000	0.789	8700	0.983	> 1020	0.98	> 10000	0.673	48.2	0.986	> 16000	0.98	> 20000
DAN-G (pancreas, adherent)	0.99	> 1020	0.964	> 10200	0.619	636	0.991	> 2000	0.937	> 20000	0.99	> 1020	–	–	0.733	66.3	0.985	> 16000	0.983	> 20000
PC-3 [JPC-3] (lung adenocarcinoma, adherent)	0.49	59.8	0.978	> 10200	0.834	4860	0.981	> 2000	0.948	> 20000	0.981	> 1020	0.965	> 10000	0.58	28.4	0.958	> 16000	0.917	> 20000
ESS-1 (endometrium, adherent)	0.105	< 4	0.973	> 10200	0.383	155	0.99	> 2000	0.948	> 20000	0.988	> 1020	0.989	> 10000	0.591	27.6	0.963	> 16000	0.989	> 20000

Lines with a small IC50 respond at low doses; a limit (>, <) means that the fit lies beyond the doses tested. For AUC the same curve is integrated over the 256-fold range of doses and scaled to a fraction: 1 means no effect, lower means more sensitive. For part of these data: Any top dose called inferred was derived from the fitted curves, not read from the paper. For part of these data: Where an entry number is given, a second screen of the drug exists; the two often differ.
